{"source": "paper PMC4336329", "about": "(PLoS ONE, 2015)", "note": "Out of some 310,000 compounds screened, about 2,200 (0.71%) showed an effect of 50% or more. Effects have a minus sign here. Some of the results follow."}
{"target": "human ether-à-go-go-related gene (hERG) potassium channel (human, UniProt Q12809)", "sequence (Q12809 whole entry, looked up)": "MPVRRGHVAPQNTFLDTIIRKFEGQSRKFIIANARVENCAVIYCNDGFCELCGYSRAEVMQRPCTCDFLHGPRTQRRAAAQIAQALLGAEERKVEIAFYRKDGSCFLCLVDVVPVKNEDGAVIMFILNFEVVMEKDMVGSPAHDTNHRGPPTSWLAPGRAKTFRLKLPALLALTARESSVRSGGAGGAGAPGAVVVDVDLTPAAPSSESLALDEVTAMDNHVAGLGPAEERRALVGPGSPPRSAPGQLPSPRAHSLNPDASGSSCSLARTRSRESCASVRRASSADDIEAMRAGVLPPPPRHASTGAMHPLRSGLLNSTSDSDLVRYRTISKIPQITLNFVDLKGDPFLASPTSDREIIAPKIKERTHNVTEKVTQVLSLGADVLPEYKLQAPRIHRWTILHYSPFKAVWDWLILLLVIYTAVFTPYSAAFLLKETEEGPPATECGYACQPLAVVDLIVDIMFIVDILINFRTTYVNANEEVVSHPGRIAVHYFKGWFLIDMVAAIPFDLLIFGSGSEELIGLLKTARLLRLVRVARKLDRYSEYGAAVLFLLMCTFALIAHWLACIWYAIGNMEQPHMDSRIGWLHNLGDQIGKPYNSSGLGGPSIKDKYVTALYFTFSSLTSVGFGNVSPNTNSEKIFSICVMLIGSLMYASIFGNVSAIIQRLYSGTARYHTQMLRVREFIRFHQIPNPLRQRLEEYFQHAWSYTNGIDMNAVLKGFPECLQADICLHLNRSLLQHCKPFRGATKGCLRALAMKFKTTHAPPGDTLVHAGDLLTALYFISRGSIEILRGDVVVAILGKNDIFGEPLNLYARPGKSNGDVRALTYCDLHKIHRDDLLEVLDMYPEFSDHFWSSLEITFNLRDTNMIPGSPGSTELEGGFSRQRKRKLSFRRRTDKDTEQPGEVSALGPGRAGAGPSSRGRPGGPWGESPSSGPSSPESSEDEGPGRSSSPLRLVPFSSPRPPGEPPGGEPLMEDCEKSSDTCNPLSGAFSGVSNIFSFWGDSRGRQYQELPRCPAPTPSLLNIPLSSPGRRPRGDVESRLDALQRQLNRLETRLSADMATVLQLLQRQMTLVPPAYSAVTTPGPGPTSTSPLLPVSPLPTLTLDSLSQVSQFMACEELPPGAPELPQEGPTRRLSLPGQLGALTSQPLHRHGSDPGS", "assay": "primary screen, population patch clamp on CHO cells stably expressing hERG", "units": {"hERG current change (%, negative = inhibition) at 1uM": "%"}}
{"smiles": "CC(NC(=O)C12CC3CC(CC(C3)C1)C2)c1ccc2c(c1)OCCO2", "note": "(stereo not shown)", "hERG current change (%, negative = inhibition) at 1uM": 12.1}
{"smiles": "CC(C)(C)OC(=O)N1CCC(C(=O)N2CCOCC2)CC1", "hERG current change (%, negative = inhibition) at 1uM": 13.7}
{"smiles": "COc1ccc(Nc2ccc(S(=O)(=O)N3CCCCC3)cc2[N+](=O)[O-])cc1Cl", "hERG current change (%, negative = inhibition) at 1uM": 1.66}
{"smiles": "Cc1cccc2nc(CSc3ncccc3C(=O)O)cn12", "hERG current change (%, negative = inhibition) at 1uM": 8.73}
{"smiles": "Cc1ccc(-n2nnnc2SC(C)C(N)=O)c(C)c1", "note": "(stereo not shown)", "hERG current change (%, negative = inhibition) at 1uM": 9.97}
{"smiles": "CCn1cc(C(=O)NC(C)CCc2ccccc2)c(=O)c2cc(S(=O)(=O)N(C)C)ccc21", "note": "(stereo not shown)", "hERG current change (%, negative = inhibition) at 1uM": 5.29}
{"smiles": "N#C/C(=C\\c1ccc([N+](=O)[O-])cc1)C(=O)Nc1ccccc1O", "hERG current change (%, negative = inhibition) at 1uM": -0.468}
{"smiles": "Cc1sc(NC(=O)c2cccs2)c(C(=O)OC(C)C)c1C", "hERG current change (%, negative = inhibition) at 1uM": 14.5}
{"smiles": "COc1ccccc1-c1noc(CCC(=O)Nc2ccccc2Cl)n1", "hERG current change (%, negative = inhibition) at 1uM": 11.8}
{"smiles": "Cl.Nc1nc(C2C(=O)CCCC2=O)cs1", "hERG current change (%, negative = inhibition) at 1uM": 7.78}
{"smiles": "Cc1ccc(C(=O)N/C(=C/c2ccc(-c3ccc(Br)cc3)o2)C(=O)NC2CCS(=O)(=O)C2)cc1", "note": "(stereo not shown)", "hERG current change (%, negative = inhibition) at 1uM": 3.65}
{"smiles": "CCn1c(NC(=O)c2nn(C)cc2Br)nc2ccccc21", "hERG current change (%, negative = inhibition) at 1uM": -0.186}
{"smiles": "Cc1nc2ccccc2c(=O)n1NC(=O)c1ccccc1F", "hERG current change (%, negative = inhibition) at 1uM": 6.71}
{"smiles": "Cc1ccccc1C(=O)NCC(=O)Nc1ccc(C)c(S(=O)(=O)N2CCCCCC2)c1", "hERG current change (%, negative = inhibition) at 1uM": 10.5}
{"smiles": "CNC(=O)c1cc2cc(Cl)cc(OC)c2oc1=O", "hERG current change (%, negative = inhibition) at 1uM": 8.18}
{"smiles": "COc1ccc(NC(=O)NCCCN2CCCCC2C)cc1", "note": "(stereo not shown)", "hERG current change (%, negative = inhibition) at 1uM": 0.473}
{"smiles": "CC(C)(CO)NC(=O)c1ccc2c(c1)C(=O)c1ccccc1-2", "hERG current change (%, negative = inhibition) at 1uM": -0.329}
{"smiles": "CC(C)[C@H]1C=C(C(=O)O)O[C@@H](OCc2ccc(CO)cc2)C1", "hERG current change (%, negative = inhibition) at 1uM": 9.72}
{"smiles": "O=C(NC(=S)Nc1ccc2oc(=O)ccc2c1)c1ccco1", "hERG current change (%, negative = inhibition) at 1uM": 14.7}
{"smiles": "Cc1ccc(-c2nc(CSCC(=O)N3CCN(c4ccccn4)CC3)c(C)o2)cc1", "hERG current change (%, negative = inhibition) at 1uM": 1.44}
{"smiles": "COC(=O)c1ccc(COc2ccc(-c3nnn(CC(=O)NC(C)(C)C)n3)cc2)cc1", "hERG current change (%, negative = inhibition) at 1uM": 6.04}
{"smiles": "O=C(Nc1ccc(Oc2ccccc2)cc1)C1CCN(c2ncccn2)CC1", "hERG current change (%, negative = inhibition) at 1uM": 4.45}
{"smiles": "Cc1ccc(-c2oc3ccccc3c(=O)c2OCC(=O)O)cc1", "hERG current change (%, negative = inhibition) at 1uM": 12}
{"smiles": "Cc1nn(CC(=O)N(C)Cc2ccccc2)c(=O)c2cccn12", "hERG current change (%, negative = inhibition) at 1uM": 13.9}
{"smiles": "O=C(CN1CCCN(Cc2ccc(F)cc2Cl)C1=O)NC1CCCC1", "hERG current change (%, negative = inhibition) at 1uM": 12}
